The source of these data is paper PMC10791543 (Science signaling, 2023).

The target in the test is GST-mDia1-RBD (mouse, UniProt O08808 69-451). Kind of test: other fluorescence titration.

B1: recombinant RHOA^L57V (natural protein)
chain: not shown
Consider B1, for which the equilibrium dissociation constant (Kd) worked out at 181 ± 27 nM.

By Kd is commonly meant the free concentration of one partner at which half of the binding sites on the other are occupied at equilibrium, for simple one-to-one binding. High values mean weaker binding, low ones tighter binding.
